Target: T1, KCTD5 (human, UniProt Q9NXV2 1-234)
T1 sequence: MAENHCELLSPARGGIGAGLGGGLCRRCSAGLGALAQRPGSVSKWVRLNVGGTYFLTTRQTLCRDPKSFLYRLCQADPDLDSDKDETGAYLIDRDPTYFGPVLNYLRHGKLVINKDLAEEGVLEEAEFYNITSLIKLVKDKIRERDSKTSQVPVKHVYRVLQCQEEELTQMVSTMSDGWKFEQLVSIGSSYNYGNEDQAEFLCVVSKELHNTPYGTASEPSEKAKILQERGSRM
Experiment: SEC

- stoichiometry N: 1 CUL3^NTD per KCTD5 (molar ratio)
B1: CUL3^NTD (N-terminal domain of cullin 3, […]) (domain or fragment)
chain: not shown
